{
  "source": "PubChem BioAssay AID686978",
  "about": "(National Center for Advancing Translational Sciences (NCATS), 2013)",
  "note": "“And” between values parts separate entries of the source, which are not always exact repeats. Identical values can stand only once. In all, about 420,000 compounds went through this assay and about 64,000 (15%) were called active. Inconclusive means that the source gave no clear call. Such entries were picked first, then a sample of the others. Calls follow the shape of the dose curve; as a rule, active = well fitted inhibition curve with a large enough effect; inconclusive = small, poorly fitted or top-dose-only effect; inactive = flat fitted curve, though single readings scatter. Potencies of inconclusive entries are doubtful fits and often do not repeat. % is scaled to controls: 0 for no effect and ±100 for the full control effect; potency is read from the fitted curve at half-maximal effect; tags tell the direction and shape of the fitted curve.",
  "data": [
    {"assay": "qHTS for Inhibitors of human tyrosyl-DNA phosphodiesterase 1 (TDP1): qHTS in cells in absence of CPT; also: nearly all actives have a fitted effect of over 55% in size", "conditions": "DT40 Tdp1-/- hTDP1 cells, no CPT, ATP luminescence, 48 h; activity change, negative = growth inhibition: at 46.2 µM (top of the series) unless noted", "summary_of_the_method": "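Growth of hTDP1-complemented DT40 Tdp1-knockout cells is measured by ATP luminescence after at least 48 hr compound exposure at 37 °C, with DMSO substituting for the 20 nM CPT used in the parallel screen.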", "values": [
      {"smiles": "Cc1cc(N(CCCl)CCCl)ccc1C=NNC(=O)c1cccnc1", "Potency": "inconclusive: 11.6 µM [inhibitor, partial curve]"},
      {"smiles": "COc1cc(C)c(CN2CCN(c3ccccc3)CC2)cc1C", "activity change, negative = growth inhibition": "inactive: -6.49%"},
      {"smiles": "COP(=S)(OC)Oc1cc(Cl)c(Cl)cc1Cl", "Potency": "inactive"},
      {"smiles": "CCCCc1nc(N2CCNCC2)c(C#N)c2c1CSC(C)(C)C2", "Potency": "inconclusive: 8.2 µM [inhibitor, partial curve]"},
      {"smiles": "COc1ccc(-c2nc3ccc(Br)cn3c2CC(=O)N2CCCC2)cc1OC", "Potency": "inconclusive: 23.1 µM [inhibitor, partial curve, poor fit]"},
      {"smiles": "O=C(c1cc2c(s1)CCCC2)N1CCC2(CC1)OCCO2", "Potency": "inconclusive: 23.1 µM [inhibitor, single point]"},
      {"smiles": "CN(Cc1ccccc1)C(=O)c1cccc(NC(=O)Cc2ccc([N+](=O)[O-])cc2)c1", "Potency": "active: 14.6 µM"},
      {"smiles": "O=C1c2ccccc2-n2nnc(-c3ccccc3)c2C2c3ccccc3CCN12", "note": "(stereo not given)", "Potency": "active: 7.31 µM"},
      {"smiles": "CC1CN(c2ccccn2)C(C)CN1C(=O)C(O)(c1ccccc1)c1ccccc1", "note": "(stereo not given)", "Potency": "active: 23.1 µM"},
      {"smiles": "NC12CN3CN(CN(C3)C1)C2", "note": "(tested in a mixture with another compound)", "activity change, negative = growth inhibition": "inactive: -7.07%"},
      {"smiles": "CCN1CCN(CC(c2ccccc2)c2ccccc2)CC1", "Potency": "inconclusive: 29.1 µM [inhibitor, single point]"},
      {"smiles": "CNC(C)C#Cc1ccc2c(=O)c3ccccc3oc2c1", "note": "(stereo not given)", "Potency": "inconclusive: 23.1 µM [inhibitor, single point]"},
      {"smiles": "CCn1c(N)c(C(=O)NC)sc1=S", "Potency": "active: 16.4 µM"},
      {"smiles": "CC(C)CNC(=O)c1c(N)n(Cc2ccco2)c2nc3ccccc3nc12", "Potency": "inconclusive: 23.1 µM [inhibitor, single point]"},
      {"smiles": "Cc1cc(C)cc(-n2c(=O)[nH]c3ccccc3c2=O)c1", "Potency": "inconclusive: 23.1 µM [inhibitor, single point]"},
      {"smiles": "CC12Cc3cn[nH]c3C=C1CCC1C2CCC2(C)C1CCC2(C)O", "note": "(stereo not given)", "Potency": "inconclusive: 29.1 µM [inhibitor, single point]"},
      {"smiles": "c1ccc2c(CCNCc3ccc4c(c3)OCO4)c[nH]c2c1", "Potency": "inconclusive: 20.6 µM [inhibitor, single point]"},
      {"smiles": "Cc1ccc(C2=NC(C)(C)N3C2C3c2ccc([N+](=O)[O-])cc2)cc1", "note": "(stereo not given)", "Potency": "active: 20.6 µM"},
      {"smiles": "CN1CN=C(N[N+](=O)[O-])N(Cc2ccco2)C1", "Potency": "inconclusive: 6.51 µM [inhibitor, single point]"},
      {"smiles": "COc1ccccc1CCNCc1cc2c(cc1[N+](=O)[O-])OCO2", "Potency": "inconclusive: 16.4 µM [inhibitor, single point]"},
      {"smiles": "CC1=C2C3OC(=O)C(C)C3CC[C@@]2(C)C=CC1=O", "note": "(stereo not given in full)", "Potency": "inactive"},
      {"smiles": "CCOc1ccc(NC(=O)CCNC(=O)N2C[C@H]3C[C@@H](C2)c2cccc(=O)n2C3)cc1", "activity change, negative = growth inhibition": "inactive: 3.39%"},
      {"smiles": "COc1ccc(-n2nnnc2C(c2ccccc2OC(F)(F)F)N2CCC(n3c(=O)[nH]c4ccccc43)CC2)cc1", "note": "(stereo not given)", "Potency": "active: 18.4 µM"},
      {"smiles": "CN1C(=O)C(=Cc2ccc(N3CCOCC3)o2)C(=O)N(C)C1=O", "activity change, negative = growth inhibition": "inactive: -8.05%"},
      {"smiles": "CC(=O)c1c(C)n(Cc2ccccc2Cl)c2ccc(O)cc12", "Potency": "inconclusive: 23.1 µM [inhibitor, partial curve]"},
      {"smiles": "CN1C(=O)C(O)N=C(c2ccccc2)c2cc(Cl)ccc21", "note": "(stereo not given)", "activity change, negative = growth inhibition": "inactive: 0.692%"},
      {"smiles": "Fc1ccc(CNCCc2c[nH]c3ccccc23)cc1", "Potency": "active: 4.61 µM"},
      {"smiles": "Cc1cc(OC(=O)c2ccco2)c2c3c(c(=O)oc2c1)CCC3", "Potency": "active: 23.1 µM"},
      {"smiles": "NS(=O)(=O)c1ccc(CCNc2nn3c(-c4ccc(F)c(Cl)c4)cnc3s2)cc1", "Potency": "active: 23.1 µM"},
      {"smiles": "CCOC(=O)c1sc(/N=C/c2c(O)n(-c3ccccc3)c(=O)[nH]c2=O)c(C#N)c1C", "Potency": "inconclusive: 9.2 µM [inhibitor, partial curve]"},
      {"smiles": "O=C(NC1CCCCC1)[C@@H]1CC=C[C@@H]2CCN(Cc3ccccc3)C(=O)[C@@H]21", "Potency": "inconclusive: 35.5 µM [inhibitor, single point] and inconclusive: 20.6 µM [inhibitor, partial curve, poor fit]"},
      {"smiles": "O=S(=O)(O)C(F)(F)C(F)(F)C(F)(F)C(F)(F)F", "activity change, negative = growth inhibition": "inactive: -14.9% [at 92.5 µM]"},
      {"smiles": "COc1ccc(OC)c(N2Cc3ccccc3C2=N)c1", "Potency": "inconclusive: 10.3 µM [inhibitor, partial curve]"},
      {"smiles": "CC(C)(Cl)[N+](=O)[O-]", "activity change, negative = growth inhibition": "inactive: 1.03%"},
      {"smiles": "CC(=CCOc1ccc2ccc(=O)oc2c1)C1=CC(=O)C(C)(C)O1", "Potency": "active: 3.26 µM"},
      {"smiles": "O=c1c2ccccc2[nH]c(=S)n1-c1cccc(C(F)(F)F)c1", "Potency": "inconclusive: 23.1 µM [inhibitor, partial curve]"},
      {"smiles": "COc1ccc(NC(=O)CSc2nc(-c3cccs3)cc(C(F)(F)F)n2)cc1Cl", "Potency": "active: 23.1 µM"},
      {"smiles": "CCCCCNC(=O)C(c1ccncc1)n1c(=O)c(-c2cc3ccccc3[nH]2)nc2ccccc21", "note": "(stereo not given)", "Potency": "inconclusive: 23.1 µM [inhibitor, single point]"},
      {"smiles": "CCN(CC)c1ccc(N=Cc2c(O)[nH]c(=O)[nH]c2=O)cc1", "Potency": "inconclusive: 29.1 µM [inhibitor, single point]"},
      {"smiles": "CCOC(=O)[C@@]1(C#N)C(c2ccc(Cl)c(Cl)c2)[C@H](C(N)=O)N2C=C(C(C)=O)C=C[C@H]21", "note": "(stereo not given in full)", "Potency": "inconclusive: 20.6 µM [inhibitor, single point]"},
      {"smiles": "C#CC(C)(CC)NC(=O)Cn1nnc(-c2ccc(OCc3ccccc3C)cc2)n1", "note": "(stereo not given)", "Potency": "inconclusive: 18.4 µM [inhibitor, single point]"},
      {"smiles": "CCC12CN3CC(CC)(CN(C1)C3c1ccccn1)C2=O", "note": "(stereo not given)", "activity change, negative = growth inhibition": "inactive: -21.5%"},
      {"smiles": "CCCCCCCCC(=O)NCc1ccc(O)c(OC)c1", "Potency": "inconclusive: 23.7 µM [inhibitor, single point]"},
      {"smiles": "Cc1c(N)c(C)c([N+](=O)[O-])c(C)c1[N+](=O)[O-]", "activity change, negative = growth inhibition": "inconclusive: -36.2% [inhibitor]"},
      {"smiles": "CCCc1nc2ccccc2c(=O)n1-c1ccc(OC)cc1", "Potency": "active: 23.1 µM"},
      {"smiles": "Cc1ccc(/C=C2\\C(=O)NC(=O)N(CC3CCCO3)C2=O)s1", "note": "(stereo not given)", "activity change, negative = growth inhibition": "inconclusive: -31.7% [inhibitor]"},
      {"smiles": "CCC(=O)OC1CCC2C3CCc4cc(O)ccc4C3CC[C@]12C", "note": "(stereo not given in full)", "Potency": "active: 20.6 µM"},
      {"smiles": "COc1ccc(-c2nc3ccc(C(=O)N4CCC5(CC4)OCCO5)cc3nc2-c2ccc(OC)cc2)cc1", "Potency": "inconclusive: 29.1 µM [inhibitor, single point]"},
      {"smiles": "CCCOc1ccc(C(=O)NC(=S)N2C[C@H]3C[C@H](C2)c2cccc(=O)n2C3)cc1", "activity change, negative = growth inhibition": "inactive: -7.07%"},
      {"smiles": "CN(C)CCn1cnc2ccccc21", "activity change, negative = growth inhibition": "inactive: 25.1%"},
      {"smiles": "O=c1oc2ccccc2c(O)c1C(c1ccc([N+](=O)[O-])cc1)c1c(O)c2ccccc2oc1=O", "activity change, negative = growth inhibition": "inactive: -5.21%"},
      {"smiles": "CN(Cc1cccc(-c2ccncc2)c1)C(=O)Oc1ccc([N+](=O)[O-])cc1", "Potency": "active: 16.4 µM"},
      {"smiles": "COc1ccc(C(O)(c2ccccc2)c2ccncc2)cc1", "note": "(stereo not given)", "Potency": "inconclusive: 29.1 µM [inhibitor, single point]"},
      {"smiles": "CC(C)c1cccc(C(C)C)c1OCCn1ccnc1", "Potency": "inconclusive: 4.61 µM [inhibitor, full curve]"},
      {"smiles": "CC1CCCN(CC(=O)N2CCCc3ccccc32)C1", "note": "(stereo not given)", "activity change, negative = growth inhibition": "inactive: -4.57%"},
      {"smiles": "O=C1NC(=O)N(c2ccc(Br)cc2)C(=O)/C1=C/c1ccsc1", "activity change, negative = growth inhibition": "inactive: -24.4%"},
      {"smiles": "CC1C(=O)C(C)C(c2ccc(Cl)cc2)NC1c1ccc(Cl)cc1", "note": "(stereo not given)", "Potency": "inconclusive: 23.1 µM [inhibitor, single point]"},
      {"smiles": "CN[C@@H](Cc1c[nH]c2ccccc12)C(=O)O", "activity change, negative = growth inhibition": "inactive: -4.87%"},
      {"smiles": "CCOc1ccc(N2C(=O)/C(=C\\c3cccs3)C(=O)NC2=S)cc1", "Potency": "inconclusive: 23.1 µM [inhibitor, partial curve, poor fit]"},
      {"smiles": "CCOc1ccc(C2CC(c3c(O)n(C)c(=O)n(C)c3=O)=NN2)cc1", "note": "(stereo not given)", "Potency": "inconclusive: 29.1 µM [inhibitor, single point]"},
      {"smiles": "O=C1CC(c2c(F)cccc2Cl)c2c(c3ccccc3oc2=O)O1", "note": "(stereo not given)", "activity change, negative = growth inhibition": "inactive: 2.16%"},
      {"smiles": "CCCCCn1c(=O)c(C(=O)Nc2nc3ccccc3[nH]2)c(O)c2ccccc21", "Potency": "active: 5.17 µM"},
      {"smiles": "CC1CCCC(C)N1/N=C/c1c[nH]c2ccc(Br)cc12", "note": "(stereo not given)", "Potency": "inconclusive: 29.1 µM [inhibitor, single point]"},
      {"smiles": "COc1ccc(CCNC(=O)C(=O)NCC2OCCN2S(=O)(=O)c2ccc(Cl)cc2)cc1", "note": "(stereo not given)", "Potency": "inconclusive: 29.1 µM [inhibitor, single point]"},
      {"smiles": "COc1ccc(C(=O)C2CCCN(C3CSCCSC3)C2)c(C)c1", "note": "(stereo not given)", "Potency": "inconclusive: 29.1 µM [inhibitor, single point]"},
      {"smiles": "CCn1c(O)c(/C=N/N2CCOCC2)c(=O)n(CC)c1=S", "activity change, negative = growth inhibition": "inactive: -2.3%"},
      {"smiles": "O=C(/C=C/c1ccc2c(c1)OCO2)c1c(O)n(CCc2ccccc2)c(=O)[nH]c1=O", "Potency": "inconclusive: 23.1 µM [inhibitor, single point]"},
      {"smiles": "Cc1cc(C)c(Cn2c3ccccc3c3cnn(CC(=O)NCc4ccc(Cl)cc4)c(=O)c32)c(C)c1", "Potency": "active: 23.1 µM"},
      {"smiles": "C=CCN1C(=O)/C(=C/c2cccs2)C(=O)NC1=S", "Potency": "active: 14.6 µM"},
      {"smiles": "O=c1[nH]c(=S)n(-c2ccc(Cl)cc2)c(O)c1C=Nc1ccc(N2CCOCC2)cc1", "activity change, negative = growth inhibition": "inactive: 1.45%"},
      {"smiles": "c1ccc(CN2CCN(Cc3ccc4ccccc4c3)CC2)cc1", "Potency": "active: 16.4 µM"},
      {"smiles": "S=C(SSC(=S)N1CCCCC1)N1CCCCC1", "Potency": "active: 0.944 µM"},
      {"smiles": "CN(C)CCOC(=O)c1cn(Cc2ccccc2)c2ccccc12", "Potency": "inconclusive: 29.1 µM [inhibitor, single point]"},
      {"smiles": "Cc1ccsc1C(=O)C1CCCN(Cc2cccn2-c2ccccn2)C1", "note": "(stereo not given)", "Potency": "inconclusive: 18.4 µM [inhibitor, single point]"},
      {"smiles": "Cc1ccc(-n2nc(C)c3c2NC(=O)CSC3c2ccc3c(c2)OCO3)cc1", "note": "(stereo not given)", "Potency": "inconclusive: 18.4 µM [inhibitor, partial curve]"}
    ]}
  ]
}
